# Assay results from the supplement of paper PMC7238544.
# Where a name gives a salt, the structure may show the parent alone. ± gives the standard deviation of the averaged measurements. The list shows a part of the results.
# System: hAMSC donor 1
# Experiment: transgenic luciferase activity (RLU/mg protein) fold change vs vehicle control (ratio); hAMSC are human adipose-derived mesenchymal stem cells given an EGFP-luciferase plasmid by lipofection; higher = more transgene expression
# Settings: priming compound concentration 100 µM
# 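Further: compounds in DMSO added 30 min before Lipofectamine 3000 transfection of pEGFP-Luc in 96-well plates, values are means of triplicate wells over DMSO vehicle wells on the same plate.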
row,SMILES,transgenic luciferase activity
1,CCc1nn(CCCN2CCN(c3cccc(Cl)c3)CC2)c(=O)n1CCOc1ccccc1 [Nefazodone hydrochloride],0.626 ± 0.35
2,CN(C)CC[C@@H](c1ccc(Cl)cc1)c1ccccn1 [Dexchlorpheniramine maleate],0.371 ± 0.22
3,CC(C)(C)C(O)/C=C/c1ccc2c(c1)OCO2 (centres undefined) [Stiripentol],1.25 ± 0.23
4,CC[C@@]1(O)C(=O)OCc2c1cc1n(c2=O)Cc2cc3c(CN(C)C)c(O)ccc3nc2-1 [Topotecan hydrochloride],0.922 ± 0.52
5,NC(=O)c1ncn([C@@H]2O[C@H](CO)[C@@H](O)[C@H]2O)n1 [Ribavirin],4.24 ± 1.5
6,CN1CCC(=C2c3ccccc3CC(=O)c3sccc32)CC1 [Ketotifen fumarate],0.59 ± 0.2

# System: hAMSC donor 2
# Experiment: as above
# Settings: priming compound concentration 100 µM
row,SMILES,transgenic luciferase activity
1,C=C(CC)C(=O)c1ccc(OCC(=O)O)c(Cl)c1Cl [Ethacrynic acid],0.884 ± 0.19
2,CN(C)CCC=C1c2ccccc2CCc2ccccc21 [Amitriptyline hydrochloride],0.554 ± 0.17
3,C[C@]12C=CC(=O)C=C1CC[C@@H]1[C@@H]2C(=O)C[C@@]2(C)[C@H]1CC[C@]2(O)C(=O)CO [Prednisone],1.11 ± 0.034
4,Nc1nc(=O)c2nc(CNc3ccc(C(=O)N[C@@H](CCC(=O)O)C(=O)O)cc3)cnc2[nH]1 [Folic acid],0.892 ± 0.12
5,CC[C@H]1OC(=O)[C@H](C)[C@@H](O[C@H]2C[C@@](C)(OC)[C@@H](O)[C@H](C)O2)[C@H](C)[C@@H](O[C@@H]2O[C@H](C)C[C@H](N(C)C)[C@H]2O)[C@](C)(OC)C[C@@H](C)C(=O)[C@H](C)[C@@H](O)[C@]1(C)O [Clarithromycin],0.591 ± 0.15
6,CN1CCN(CCCN2c3ccccc3Sc3ccc(C(F)(F)F)cc32)CC1 [Trifluoperazine hydrochloride],0.000386 ± 2.9e-05
7,NNCCc1ccccc1 [Phenelzine sulfate],2.62 ± 1.1
8,O=C(O[C@@H]1C[C@@H]2C[C@H]3C[C@H](C1)N2CC3=O)c1c[nH]c2ccccc12 [Dolasetron mesylate],1.19 ± 0.19
9,CC(C)NCC(O)c1ccc(NS(C)(=O)=O)cc1 (centres undefined) [Sotalol hydrochloride],1.16 ± 0.48
10,Cc1ncc([N+](=O)[O-])n1CC(O)CCl (centres undefined) [Ornidazole],0.985 ± 0.71
11,CNC(=N)NCCC[C@H](N)C(=O)O [L-NMMA acetate],1.04 ± 0.88
12,C[C@]12CCC(=O)C=C1CC[C@@H]1[C@@H]2C(=O)C[C@@]2(C)[C@H]1CC[C@]2(O)C(=O)CO [Cortisone],0.163 ± 0.041
13,CCOC(=O)c1ccc(OC(=O)CCCCCNC(=N)N)cc1 [Gabexate mesilate],0.617 ± 0.12
14,CNCCC=C1c2ccccc2CCc2ccccc21 [Nortriptyline hydrochloride],0.00124 ± 0.00058
15,O=C(O[C@@H]1Cc2c(O)cc(O)cc2O[C@@H]1c1cc(O)c(O)c(O)c1)c1cc(O)c(O)c(O)c1 [Epigallocatechin gallate],0.0395 ± 0.0039
16,CC(C)Oc1ccc2c(=O)c(-c3ccccc3)coc2c1 [Ipriflavone],0.963 ± 0.084
17,CC(=O)Oc1ccccc1C(=O)Nc1ncc([N+](=O)[O-])s1 [Nitazoxanide],1.77 ± 0.52
18,CCN1CCN(C(=O)N[C@@H](C(=O)N[C@@H]2C(=O)N3[C@@H]2SC(C)(C)[C@@H]3C(=O)O)c2ccccc2)C(=O)C1=O [Piperacillin sodium],0.797 ± 0.19
19,CC=CC(=O)N(CC)c1ccccc1C [Crotamiton],0.83 ± 0.24

row,SMILES,transgenic luciferase activity
1,Nc1nc(Cl)nc2c1ncn2[C@H]1C[C@H](O)[C@@H](CO)O1 [Cladribine],0.492 ± 0.1
2,CCOC(=O)[C@H](CCc1ccccc1)N[C@@H](C)C(=O)N1Cc2ccccc2C[C@H]1C(=O)O [Quinapril hydrochloride],0.318 ± 0.11
3,C[N+]1(C)CCC(OC(=O)C(O)(c2ccccc2)C2CCCC2)C1 (centres undefined) [Glycopyrronium bromide],1.94 ± 0.49
4,CSc1ccc2c(c1)N(CCC1CCCCN1C)c1ccccc1S2 (centres undefined) [Thioridazine hydrochloride],0.000333 ± 0.00021
5,CC(C)NCC(O)COc1cccc2[nH]ccc12 (centres undefined) [Pindolol],1.14 ± 0.32
6,CC(C)n1c(/C=C/C(O)CC(O)CC(=O)O)c(-c2ccc(F)cc2)c2ccccc21 (centres undefined) [Fluvastatin],0.59 ± 0.25
7,CCOC(=O)c1ncn2c1CN(C)C(=O)c1cc(F)ccc1-2 [Flumazenil],0.748 ± 0.33
8,CC(C)(C)NC(=O)[C@@H]1C[C@@H]2CCCC[C@@H]2CN1C[C@@H](O)[C@H](Cc1ccccc1)NC(=O)[C@H](CC(N)=O)NC(=O)c1ccc2ccccc2n1 [Saquinavir mesylate],0.00924 ± 0.0076
9,CC(C)(C)NC(=O)[C@@H]1CN(Cc2cccnc2)CCN1C[C@@H](O)C[C@@H](Cc1ccccc1)C(=O)N[C@H]1c2ccccc2C[C@H]1O [Indinavir sulfate],0.772 ± 0.19
10,COCCCOc1ccnc(C[S+]([O-])c2nc3ccccc3[nH]2)c1C (centres undefined) [Rabeprazole],1.18 ± 0.42
11,CN(C)CCOC(c1ccccc1)c1ccccc1 [Diphenhydramine hydrochloride],0.734 ± 0.12
12,Cc1nc2n(c(=O)c1CCN1CCC(c3noc4cc(F)ccc34)CC1)CCCC2 [Risperidone],1.01 ± 0.36
13,CC[C@H](C)C(=O)O[C@H]1C[C@H](O)C=C2C=C[C@H](C)[C@H](CC[C@@H](O)C[C@@H](O)CC(=O)O)[C@H]21 [Pravastatin sodium],0.845 ± 0.2
14,CCc1nn(CCCN2CCN(c3cccc(Cl)c3)CC2)c(=O)n1CCOc1ccccc1 [Nefazodone hydrochloride],0.994 ± 0.41
15,CN(C)CC[C@@H](c1ccc(Cl)cc1)c1ccccn1 [Dexchlorpheniramine maleate],0.51 ± 0.21
16,CC(C)(C)C(O)/C=C/c1ccc2c(c1)OCO2 (centres undefined) [Stiripentol],1.02 ± 0.27
17,CC[C@@]1(O)C(=O)OCc2c1cc1n(c2=O)Cc2cc3c(CN(C)C)c(O)ccc3nc2-1 [Topotecan hydrochloride],0.254 ± 0.13
18,NC(=O)c1ncn([C@@H]2O[C@H](CO)[C@@H](O)[C@H]2O)n1 [Ribavirin],2.83 ± 0.79
19,CN1CCC(=C2c3ccccc3CC(=O)c3sccc32)CC1 [Ketotifen fumarate],0.343 ± 0.015
